# From paper PMC12136788
# The list shows a part of the results.
# B1: chr5:171410733:171410822:+|3pUTR|ENSG00000181163|msi1_unk|total|mutant (ssRNA)
# RNA: GGGAGUUCUACAGUCCGACGAUCGUUUUUAAAGAUGGAACUCCACCCUUUGCUUGGUUUUAAGUAUGUAUGGAAUGUUAUGACCGGACACCGCCGCCGCGGUGGUCAGACAUGGAAAUGGUGGGGAGACAAAAAUAUACAUGUCAACAGAGGAUUGAGCAUCA
# B2: chr8:123014585:123014686:-|3pUTR|ENSG00000136986|msi1|total|mutant (ssRNA)
# RNA: GGGAGUUCUACAGUCCGACGAUCGCAGCUAACAUGGGUCCGGUUUAAACCAUGGGGGAUGCAACCCCUUUGCGUUUCAUAUGCCGGCCUACUGGCUUUGUGCCGCUGGAGCCGUUGGGUUGCUUUGUGUCCGGAGGAUCCAGACAACAGAGGAUUGAGCAUCA
# B3: chr7:44573567:44573675:-|CDS|ENSG00000136271|unk|FALSE|unique (ssRNA)
# RNA: GGGAGUUCUACAGUCCGACGAUCCGCACGGGCUCCGGGAAGACGGCCGCUUAUGCUAUUCCGAUGCUGCAGCUGUUGCUCCAUAGGAAGGCGGUGGGUAACGAGAGAGCUGAGGGGAGGAAGGAGGCAAGCUCCAAAAGCCUGCAACAGAGGAUUGAGCAUCA
# B4: chr3:75729960:75730612:-|three_prime_utr|ENSG00000227124|control|control|control (ssRNA)
# RNA: GGGAGUUCUACAGUCCGACGAUCACUUCUGGCCAUCAUAUUGUUCUUUUAUUUUUCCAAAUUUCACAUCACCAGUAACAAACUAGCUGUGAUCAUGGCAGAUAGCCUGGAAAUAAAACUCCCCUUUUUACCCUUUGCACAGCACAACAGAGGAUUGAGCAUCA
# B5: chr1:155884367:155884468:+|3pUTR|ENSG00000132718|msi1|FALSE|unique (ssRNA)
# RNA: GGGAGUUCUACAGUCCGACGAUCUGGGUCUACUGAGCAGUGGGUGCUGAGGUGACAGGGGAGGAACCAGUUGUUCUGUAGCCUAGGAACUGCCUCAGUGUCUUUGCCAGAAAAAGGCAAAGAGGCGGACAGUGCAGGGCUCCUCAACAGAGGAUUGAGCAUCA
# B6: chr16:11872726:11872856:-|3pUTR|ENSG00000103342|msi1_unk|total|mutant (ssRNA)
# RNA: GGGAGUUCUACAGUCCGACGAUCACAUAAUUGCCUACAAUAAUGAAAACCUACAGGAAUUUUUUUAUUUUUCAUUUUCCCCUCCGGCAUAUUCCGUAUUUUUCCCCCAGGCAGAUCAUUCUGAGUGUGCGAGUGUGUGUGCACCAACAGAGGAUUGAGCAUCA
# B7: chr13:98915392:98915499:-|CDS|ENSG00000088387|unk|FALSE|unique (ssRNA)
# RNA: GGGAGUUCUACAGUCCGACGAUCUCAUUUCAGAACAACAAAGUCAGGCGUUUUGCUUUUGAGCUCAAGAUGCAGGACAAAAGUAGUUAUCUCUUGGCAGCAGACAGUGAAGUGGAAAUGGAAGAAUGGAUCACAAUUCUAAAUCAACAGAGGAUUGAGCAUCA
# B8: ENSG00000198589:be:win_3251|CDS|ENSG00000198589|bound_else_gene|NA|bound_elsewhere_windowed (ssRNA)
# RNA: GGGAGUUCUACAGUCCGACGAUCCUCCUUCAGAAGAGGAUGCCUCAGAGAUGCCAGAAUUCUUGGAUAAAUCUAUAGUAGAGGAAGAGGAAGAUGAUGAUUAUGUGGAACUGAAAGUAGAAGGCAGUCCUACUGAGGAAGCUACAACAGAGGAUUGAGCAUCA
# B9: chr11:119045269:119045370:-|3pUTR|ENSG00000149428|msi1|FALSE|unique (ssRNA)
# RNA: GGGAGUUCUACAGUCCGACGAUCUGUGGUUAAAAAUGGAAACUGUUCUCCUCCCCAGCCCCACUCCCUGUUCCCUACCCAUAUAGGCCCUAAAUUUGGGAAAAAUCACUAUUAAUUUCUGAAUCCUUUGCCUGUGGGUAGGAACAACAGAGGAUUGAGCAUCA
# B10: chr7:6691352:6691453:-|CDS|ENSG00000164631|unk|FALSE|bound_elsewhere (ssRNA)
# RNA: GGGAGUUCUACAGUCCGACGAUCUACGAAUGUAAUGAAUGUGGAAAGUUAUUCUCCCAGUUGUCAUACCUCACUAUCCAUCAUAGAACUCAUUCAGGAGUAAAACCCUAUGAAUGUAGUGAAUGUGGGAAAACCUUCUACCAGCAACAGAGGAUUGAGCAUCA
# B11: chr12:53253816:53253925:+|CDS|ENSG00000182544|unk|total|mutant (ssRNA)
# RNA: GGGAGUUCUACAGUCCGACGAUCUCUCUUCAUGUUGACUUUCUCUACCAGCCCAGGCCAGGAGAGUCCGGUGGAGUCCUUCACCGCCUUUCUACUUAUUGAGUUGGCUUGUGGAUUAUACUUUCCCAGCAUGAGCUUCCUACGCAACAGAGGAUUGAGCAUCA
# B12: chr12:24812577:24812678:-|3pUTR|ENSG00000060982|msi1|FALSE|unique (ssRNA)
# RNA: GGGAGUUCUACAGUCCGACGAUCAUCCAAAGGAGCUUUUUCCUUAUUCUGUCAAGCAUUGAGAUCUUCUUCAGCUUUCAAUGUAGUUGCUAAAUACAAAUAAUGCUACUAGGUAGUGACUAAAUAUAGCAAACACUUCAUCAGCAACAGAGGAUUGAGCAUCA
# B13: chr16:785952:786377:-|CDS|ENSG00000007376|control|control|control (ssRNA)
# RNA: GGGAGUUCUACAGUCCGACGAUCCAGUCGCUGGACCAGCUCGUGCAGGCCUUACGGGCCACCCCCGACCCUGACCCCGAGGAUAGGGGCCCCAGGCCAGGCAGCCCCUCCGCACUCCUGCCUGGGCCCGGCCGGCCUCCUCCACAACAGAGGAUUGAGCAUCA
# B14: chr9:37862824:37862925:+|3pUTR|ENSG00000122741|unk|FALSE|unique (ssRNA)
# RNA: GGGAGUUCUACAGUCCGACGAUCUAUGCACUAGCCUUGCCCUCUUAGGUUGCAUUCUCUUUAGGCCACUGGUUCUCAAACAUUAGGGUGCACUGUAACCAUUACAGAGCUUGUGAAAAGUGCAGAAACCUGAGCCUCACCUUACAACAGAGGAUUGAGCAUCA
# B15: chr10:92050442:92050545:-|3pUTR|ENSG00000107864|unk|FALSE|unique (ssRNA)
# RNA: GGGAGUUCUACAGUCCGACGAUCAUGAAGGCCUGCUAGCACUAGCGUGGACAUUUUUCUAGCAUUCACCCUUGGGCUGCAGAUAGUAAUAUAUAAACACACACAAUGAUUGCAAGACUAUGUAAAUCUUUUUUUAAUCUUCUUCAACAGAGGAUUGAGCAUCA
# B16: chr3:151442983:151443884:-|CDS|ENSG00000152580|control|control|control (ssRNA)
# RNA: GGGAGUUCUACAGUCCGACGAUCUGGUUCGGAGCGAAGAGUAGUAAUGCUUACAAUGGAAGAGCGAGUGACCAGCCCCAGGAUAGAAGCUGCAUCCCAGAAAAGGACUGAAGUGAAUUUUGGGGACAAAUUACUACUGAACUGCAACAGAGGAUUGAGCAUCA
# B17: chr9:128633378:128633479:+|3pUTR|ENSG00000197694|msi1|FALSE|bound_elsewhere (ssRNA)
# RNA: GGGAGUUCUACAGUCCGACGAUCCUUGCUGCAUGUCCGCUCCUCUGUGUGCUCUCACUUUCCACUGUAACCUUAAGCCUGCUUAGCUUGGAAUAAGACUUAGGAGAAAAUGGUGCUUCACUAACCCGCUUCCGGUCCAGUCACCAACAGAGGAUUGAGCAUCA
# B18: chr15:59081107:59081211:+|CDS|ENSG00000157450|unk|FALSE|unique (ssRNA)
# RNA: GGGAGUUCUACAGUCCGACGAUCUUCUCAAAUAUCUUCUCAUGCAACAUCUCAUCCUGUGGCACCCCCACCACCAACUCACUUAGCCAGUACAGCUGCACCAAUCCCUCAGCAUCUUCCUCCUACACACCAGCCAAUUUCGCACAACAGAGGAUUGAGCAUCA
# B19: chr8:6521177:6521410:-|CDS|ENSG00000091879|control|control|control (ssRNA)
# RNA: GGGAGUUCUACAGUCCGACGAUCUCAGCUACAGGUGUUAGUAUCCAAGCAAAAUUCCAUCAUUGAAGAACUAGAAAAAAAAAUAGUGACUGCCACGGUGAAUAAUUCAGUUCUUCAGAAGCAGCAACAUGAUCUCAUGGAGACCAACAGAGGAUUGAGCAUCA
# B20: chr9:26904889:26904990:-|3pUTR|ENSG00000137055|msi1|total|mutant (ssRNA)
# RNA: GGGAGUUCUACAGUCCGACGAUCAUAAUUUCUUGAUUUGUCAUUUAUAAAUCCUAAAGUAUAUUUGUUUAAUGGCCUAUUUUCCGAUGAAGAAAAAGCCAGUUGGUAAGCUGUGUCCGUCAUGUAUCAGUUCAGACAGACGAGCAACAGAGGAUUGAGCAUCA
# B21: chr2:201645282:201645383:-|CDS|ENSG00000082126|unk|total|mutant (ssRNA)
# RNA: GGGAGUUCUACAGUCCGACGAUCUACUAUCCAUAUUUUUCUAUUUCUCCUAAAGGAUGAAGACCUACAAGAGAUGGAAAAUUCCGCCCAAAGAAUGGAAACUCAGUUUGGCCAAUUUUUUGAUCAUGUGAUUGUGAAUGACAGCAACAGAGGAUUGAGCAUCA
# B22: chr14:90848141:90848242:-|3pUTR|ENSG00000100784|unk|total|mutant (ssRNA)
# RNA: GGGAGUUCUACAGUCCGACGAUCCGAUAACUGGUACUGCCUUUGAUUAAAGGUGAGCUAUAUGGAGUUAAGCAUUUUUAUACCCGUAACUAUUUAUUGAGAAUUUUCAGAAUUCUACCGCUACUUGUCUUUAACAGUUAUAAGCAACAGAGGAUUGAGCAUCA
# Molecular target: MSI1 full-length (mouse, UniProt Q61474 1-362)
# UniProt Q61474, sequence (Q61474 whole entry): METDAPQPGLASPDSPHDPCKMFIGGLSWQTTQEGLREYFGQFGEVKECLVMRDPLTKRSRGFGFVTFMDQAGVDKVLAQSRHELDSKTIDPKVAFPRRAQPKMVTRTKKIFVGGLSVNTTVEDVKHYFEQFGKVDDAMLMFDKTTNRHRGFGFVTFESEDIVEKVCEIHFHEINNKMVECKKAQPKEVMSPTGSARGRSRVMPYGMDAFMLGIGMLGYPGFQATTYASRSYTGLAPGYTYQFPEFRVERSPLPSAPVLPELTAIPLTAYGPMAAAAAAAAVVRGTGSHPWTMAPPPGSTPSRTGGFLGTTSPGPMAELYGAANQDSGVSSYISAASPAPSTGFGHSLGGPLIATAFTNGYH
# Test: nsRBNS (natural sequence RNA bind-n-seq); RBNS binding buffer (assumed for nsRBNS): 25 mM Tris pH 7.5, 150 mM KCl, 3 mM MgCl2, 0.01% Triton X-100, 500 ug/ml BSA, 20 U/ml SUPERase-In, 4 C; UNK is unkempt and MSI1 is Musashi-1; names of the RNAs are library labels; protein concentration not given here; high values mean tight binding
row,Binder,binding signal
1,B1,0.643 enrichment R
2,B2,0.252 enrichment R
3,B3,0.454 enrichment R
4,B4,0.497 enrichment R
5,B5,0.434 enrichment R
6,B6,0.859 enrichment R
7,B7,0.455 enrichment R
8,B8,1.5 enrichment R
9,B9,0.353 enrichment R
10,B10,0.207 enrichment R
11,B11,0.395 enrichment R
12,B12,1.86 enrichment R
13,B13,0.196 enrichment R
14,B14,0.459 enrichment R
15,B15,2.45 enrichment R
16,B16,0.498 enrichment R
17,B17,0.57 enrichment R
18,B18,0.876 enrichment R
19,B19,0.674 enrichment R
20,B20,0.779 enrichment R
21,B21,0.384 enrichment R
22,B22,1.32 enrichment R
